Assay results reported in the supplement of paper PMC11417369.
± gives the standard deviation of the averaged measurements. The list shows a part of the results.

Test system: PfAP2-LT AP2 domain (GST-tagged)
Experiment: gcPBM binding intensity (ln(normalized median fluorescence intensity)); higher = stronger DNA binding
In short: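 Probes on an Agilent 4 × 180k array were primer-extended, double-stranded and 36 bp long, taken from intergenic genomic regions, with negative controls added. GST-tagged P. falciparum DNA-binding domains from E. coli, about 25 μg on average, were applied to the array for 1 h in 1× PBS containing 1% milk, 0.2 mg/ml BSA, 0.5% salmon testes DNA and 0.03% Triton X-100. Binding intensity, obtained after Alexa488 anti-GST antibody detection and a 488 nm scan, is the highest Masliner-normalised natural-log median intensity across replicate spots of either probe orientation.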

Sequence | gcPBM binding intensity (ln)
ATTATTTTATTTATTGGTACGTAATTGTAGATTTCT [XGTACX_site3697] | 8.78 ± 0.4
GCAAAAACAAACGTCACACATACAAAGGCCGTGTAA [CACACA_site6043] | 9.07 ± 0.47
TTCCAACCAATACAAACATGCATTTGAAAAAATGTA [TGCATGCA_site119] | 8.6 ± 0.46
TTCGCCCTAAATAGAGTGCATTATATATATTAATAT | 8.74 ± 0.4
ATAAAATAAATATAACCACACACGAAAGAGAGAGAA [CACACA_site9075] | 9.41 ± 0.35
TTTTTAGGAAAGGCGGCACACATTTATATATTTATT [CACACA_site3672] | 8.98 ± 0.4
AGCAGTCAGCAGGACAGTACACAGTAGCCAGTAACT [XGTACX_site1999] | 9.08 ± 0.57
TTTATTTTATCATTTGCACACGCACGCCCACATAAA [CACACA_site353] | 9.39 ± 0.42
CAAAATATATTGAATTGTACATAAAAATAAAAATTA [XGTACX_site4193] | 8.63 ± 0.48
TTGTTTTTAGTTTATACACACCATATTAAAATAATG [CACACA_site5675] | 8.77 ± 0.42
AATAAAATATACTATTGTACATATGGAACTACTTGA [XGTACX_site8928] | 8.76 ± 0.48
ATTTATTATATATAGTGTACGTTCTTAATTATAATT [XGTACX_site7480] | 8.85 ± 0.42
TAAAATATATTGCCAGTGCATAATATATGTAATTAT | 8.71 ± 0.41
TGTATAAACCCACGTACACACACTAAGTATATCCAA [CACACA_site1605] | 9.25 ± 0.38
TTTTTTAAATATTAAAAATGGGATCTTATAACATAT [GTGCAC_negctrl_site666] | 8.21 ± 0.47
TAAACAAATAAATAAACACACAATATAGGTATATAT [CACACA_site7739] | 9.01 ± 0.53
AACTAATAAAAAAAAAAAACATTAAACAGGACAAAT [XGTACX_negctrl_site287] | 8.86 ± 0.54
TTATTTTTAACGTACGCACACATATAAATATATTTA [CACACA_site1976] | 8.97 ± 0.35
TTGTATTACATAAATGTTCTTTATTATTTGATAAAA [CACACA_negctrl_site903] | 8.35 ± 0.45
TATATAATATATTAATGTACTTAAAATATATTCTAT [XGTACX_site1235] | 8.51 ± 0.35
GTGTAGTTAAAAAAAAGTACAGATTTTTTTTTTTTT [XGTACX_site849] | 8.59 ± 0.46
ATAGAATATTGATATTGTACGTTATCTTAAAACAAT [XGTACX_site1702] | 8.57 ± 0.33

Sequence | gcPBM binding intensity (ln)
AAAAAAAAAAAAACAAGTACAAAGGATAGAAAAAAA [XGTACX_site4133] | 8.76 ± 0.45
ATAAGAACGTCTATGTGTACGCAGCAAAACTGAGTT [XGTACX_site6385] | 8.92 ± 0.28
TTCTCAAAGAAGAAAAAGTTTTTTTAATTTTTCTTT [XGTACX_negctrl_site543] | 8.03 ± 0.61
CAAAAAAAAAAAAAAAATAAATAAAGGAAATAAAAA [CACACA_negctrl_site20] | 8.38 ± 0.68
ACATATAAAATGTATACACACAAATATTACATATAT [CACACA_site1472] | 9.11 ± 0.45
AATAAAAAATATAACACAAATATGTATATATATATA [TGCATGCA_negctrl_site245] | 9.29 ± 0.11
AACCAATTATATTTACGTACGTACGGTTTTTTATAT [XGTACX_site1291] | 9.18 ± 0.45
ATATATTAATATACTCGTACATATTCTTATTGTGTA [XGTACX_site3728] | 8.94 ± 0.45
AATATATTTTTTTTTTGTACATATTGTAAAATAATA [XGTACX_site6805] | 8.43 ± 0.47
TATATATATTTCCAGTGTACTTATTTTTTAATCAAT [XGTACX_site8220] | 8.71 ± 0.51
TCCTCAAAAAAATAAAATAATTTATACTTTTTTAAA [GTGCAC_negctrl_site724] | 8.01 ± 0.54
CACATTTAGAAATAGTTTTATTTTGTATATTCTATT [CACACA_negctrl_site1382] | 8.64 ± 0.4
TATACATTTATGTACACACACATATCTGTATATTTA [CACACA_site5617] | 9.23 ± 0.42
GTATGTGTATGTGTATGTACATATGTATGTATAAAA [XGTACX_site8191] | 9.19 ± 0.49
TTTTGTATATATCACATTAAAAGAAAAAAATATATG [GTGCAC_negctrl_site120] | 8.22 ± 0.46
CATATAAAAAATATGGTGCAGTTTTTTTTTTTTTTT | 8.82 ± 0.37
TATATATATAATGTTTGTACATATTAAATATATATG [XGTACX_site407] | 8.61 ± 0.47
TAAATATTTTTATGGGTGCGTTCTTTAGCGCAATTT | 8.59 ± 0.4
TTTTGCAATAATGTTGCACACTAAATAGTCATATAT [CACACA_site7977] | 8.88 ± 0.4
ATTATTGTTGTTCATGTACACACTATAATAAAAGCA [CACACA_site4168] | 8.78 ± 0.42
TTTATATTGATATATACACACATATACATCCTATTT [CACACA_site7442] | 9.11 ± 0.42
ATTAATTATTTCAATGCATGTGAACACTATATATAA [TGCATGCA_site600] | 8.84 ± 0.42
